From PubChem BioAssay AID894 (National Center for Advancing Translational Sciences (NCATS), 2007)
About 6,500 (4.3%) of roughly 150,000 compounds were called active. Inconclusive means that the source gave no clear call. Such entries were picked first, then a sample of the others. Calls follow the shape of the dose curve; as a rule, active = well fitted inhibition curve with a large enough effect (not every such curve was filed as active); inconclusive = small, poorly fitted or top-dose-only effect, or another doubt; inactive = no such curve, though single readings can be large or run the other way. No potency is given beside an inconclusive call; the fits are too rough.

molecular target: 15-hydroxyprostaglandin dehydrogenase [NAD(+)] (Homo sapiens) (UniProt P15428); test: qHTS Assay for Inhibitors of HPGD (15-Hydroxyprostaglandin Dehydrogenase); conditions: purified HPGD, NADH fluorescence kinetic, PGE2 substrate; activity change, negative = inhibition: hits give low values
Method in brief: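 20 nM HPGD preincubated 15 min at room temperature with compound in 50 mM Tris-HCl pH 8, 0.01% Tween 20. Started with 1 mM NAD+ and 30 uM prostaglandin E2; NADH fluorescence (360/450 nm) read 5 times over 30-s intervals, last minus first.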
% is scaled to controls: 0 for no effect and ±100 for the full control effect; potency is read from the fitted curve at half-maximal effect; tags tell the direction and shape of the fitted curve.

Chain of UniProt P15428 (P15428 whole entry, looked up): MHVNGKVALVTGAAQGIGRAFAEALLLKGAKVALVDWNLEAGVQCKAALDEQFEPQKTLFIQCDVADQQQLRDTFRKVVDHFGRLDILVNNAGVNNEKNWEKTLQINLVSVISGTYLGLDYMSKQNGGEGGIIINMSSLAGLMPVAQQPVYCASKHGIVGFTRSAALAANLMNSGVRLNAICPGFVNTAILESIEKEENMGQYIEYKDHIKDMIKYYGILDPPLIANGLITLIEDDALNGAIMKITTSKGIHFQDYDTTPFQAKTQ

Structure (SMILES)	Potency	activity change, negative = inhibition
Cc1ccc(S(=O)(=O)c2c(C)cc(C)nc2Cl)cc1	inconclusive [inhibitor, partial curve]	
COc1ccc(Oc2ncc3nc(-c4ccc(OC)cc4)c(=O)n(Cc4cccs4)c3n2)cc1		inactive: -4.89%
COc1ccc2nc(NC(=O)c3ccc(NS(=O)(=O)c4cccs4)cc3)sc2c1	inconclusive [inhibitor, partial curve]	
Clc1cccc(Cl)c1CO/N=C/c1c(-c2ccccc2)nc2n1CCS2	inconclusive [inhibitor, single point]	
Cc1ccc(-n2ncc3c(=O)n(CC(=O)NCc4ccco4)cnc32)cc1C	inconclusive [inhibitor, partial curve]	
O=C1C2C3C=CC(C4CC34)C2C(=O)N1/N=C/c1ccc(-c2ccc(F)cc2[N+](=O)[O-])o1 (stereo not given)	active: 20 µM	
Cc1ccc(/C=N/n2c(-c3ccncc3)n[nH]c2=S)cc1	active: 20 µM	
CCn1c(CC(=O)Nc2cccc(Cl)c2Cl)nnc1SCCOc1ccc(OC)cc1		inactive: -5.14%
CN(C)CCC[C@@H]1c2ccccc2Oc2ccc(C(F)(F)F)cc21		inactive: -2.17%
Cc1cccc(NC(=O)c2cn(-c3ccccc3)nc2-c2ccccc2)c1		inactive: -8.47%
COc1ccc(OC)c(/C=N/NC(=O)CC2C(=O)NN=C2C)c1 (stereo not given)	inconclusive [inhibitor, partial curve]	
COc1cc2oc(=O)cc(-c3ccc(-c4cccc(N)c4)cc3)c2c(OC)c1OC		inactive: -23.3%
CCCN1C(=O)c2ccccc2NC1c1ccc(OC)c(CSc2ccccn2)c1 (stereo not given)	inconclusive [inhibitor, partial curve]	
COc1ccc2c(Cl)c(C(=O)NCCCn3ccnc3)sc2c1Cl	inconclusive [inhibitor, partial curve]	
Cc1cccn2cc(CNC(=O)C3CCCCC3)nc12	inconclusive [inhibitor, partial curve, poor fit]	
CCN(CC)S(=O)(=O)c1ccc2c3c(cccc13)C(=O)N2	inconclusive [inhibitor, partial curve]	
CSc1nc2nc(C(F)(F)F)cc(-c3ccccc3)n2n1	inconclusive [inhibitor, partial curve]	
COc1ccc(-c2ccc(CCC(=O)O)n2C(C)C)cc1	inconclusive [inhibitor, partial curve]	
O=c1[nH]c(=O)n(-c2ccccc2)c2c1C(C(F)(F)F)(C(F)(F)F)N=C(CCC1CCCCC1)N2	inconclusive [inhibitor, partial curve]	
CCCCCC(=O)Nc1ccc2oc(-c3ccncc3)nc2c1	inconclusive [inhibitor, partial curve]	
Cc1ccc(S(=O)(=O)N2CCN(C)CC2)c(C)c1N(C)S(=O)(=O)c1ccc(Cl)cc1	inconclusive [inhibitor, partial curve]	
FC(F)(F)c1ccccc1-c1cc(N2CCNCC2)ncn1		inactive: -4.52%
COC(=O)c1cc2ccccn2c2c(C(=O)OC)c(C(=O)OC)cc1-2		inactive: -19.7%
N#Cc1c(C#N)c(-c2ccccc2)n(-c2ccccc2)c1N	inconclusive [inhibitor, partial curve]	

Structure (SMILES)	Potency	activity change, negative = inhibition
CC(C)c1cccc2c([Si](C)(C)C)c3c(nc12)-c1cccc(=O)n1C3	inconclusive [inhibitor, partial curve]	
CCOC(=O)c1nn(-c2ccc(C)c(C)c2)cc1O		inactive: -16%
CC1(C)OC(=O)C(=CNc2ccccc2F)C(=O)O1		inactive: -7.05%
O=c1ccc(/C=C/c2ccccc2)nn1Cc1ccccc1Cl	inconclusive [inhibitor, partial curve]	
CCOC(=O)N1CCN(C(=O)c2ccc3c(c2)ncn3C2CCCC2)CC1	inconclusive [inhibitor, partial curve]	
Cc1ccc(NC(=S)NC(=O)c2ccc(-c3ccc(Cl)cc3)o2)c(O)c1		inactive: -14.7%
Cc1[nH]c(C)c(CN(C)C)c1CN(C)C		inactive: -6.43%
CCN(CC)C(=O)c1ccc(Nc2nnc(C)c3ccccc23)cc1	active: 2.24 µM	
CN(C)c1nn(C(=O)Nc2ccc(Cl)cc2Cl)cc1-c1ccccc1	inconclusive [inhibitor, single point]	
CCC(=O)Nc1ccc2c(c1)C(=O)N(C1CCCCC1)C2=O	inconclusive [inhibitor, partial curve]	
C/C=C(/C)C(=O)OC1C(OC(C)=O)[C@@]2(CO)C(O)C[C@@]3(C)C(=CCC4[C@@]5(C)CCC(OC6OC(C(=O)O)[C@@H](O[C@@H]7OC(CO)C(O)C(O)C7O)C(O)[C@H]6O[C@@H]6OC(CO)C(O)C(O)C6O)[C@](C)(CO)C5CC[C@@]43C)C2CC1(C)C (stereo not given in full)	inconclusive [inhibitor, single point]	
CCOC(=O)c1c(NC(=O)c2ccc(Br)o2)sc(C)c1CC	inconclusive [inhibitor, single point]	
N#C/C(=N\Nc1cccc2ccccc12)c1nnc2n1CCCCC2	active: 17.8 µM	
COc1ccc(CC(=O)N2CCN(c3ccccn3)CC2)cc1OC	inconclusive [inhibitor, partial curve]	
COC(=O)c1c(Cl)c(Cl)c(C(=O)OC)c(Cl)c1Cl		inactive: -11.5%
CC(C)(C)NC(=O)Cn1nnc(-c2ccccc2Cl)n1	inconclusive [inhibitor, partial curve, poor fit]	
CN1CCc2nc3sc(C(=O)C45CC6CC(CC(C6)C4)C5)c(N)c3cc2C1	inconclusive [inhibitor, full curve]	
O=c1c(Cl)c(NCc2ccccc2Cl)cnn1C12CC3CC(CC(C3)C1)C2		inactive: -19.9%
Cc1ccc(-c2c(C)n([O-])c3c([n+]2=O)CCC3)cc1		inactive: -24.7%
COc1cc(C)nc(N2CCCC(C(=O)Nc3cccc(Cl)c3Cl)C2)n1 (stereo not given)		inactive: -9.66%
COc1ccc(-c2[nH]c(-c3cccc(OC)c3)nc2SCC(=O)NC2CCCC2)cc1	inconclusive [inhibitor, partial curve]	
COc1cc(NC(=O)c2cc(C(C)C)on2)c(OC)cc1Cl	inconclusive [inhibitor, single point]	
Oc1ccc(N=Nc2cccc(C(F)(F)F)c2)cc1C=Nc1ccc(N2CCOCC2)cc1	inconclusive [inhibitor, partial curve, poor fit]	
CS(=O)(=O)NC1c2cccc3cccc(c23)C1Sc1nncn1/N=C/c1ccco1 (stereo not given)		inactive: 1.23%

Structure (SMILES)	Potency	activity change, negative = inhibition
CCCC(C)C(=O)NCc1ccc2c(c1)OCO2 (stereo not given)	inconclusive [inhibitor, single point]	
COc1ccc(N/C(C)=C2/C(=O)C(=O)N(CCO)C2c2ccc([N+](=O)[O-])cc2)cc1 (stereo not given)		inactive: -6.38%
O=C(/C=C/c1ccco1)N/C(=C\c1ccccc1)C(=O)NCCc1nc2ccccc2[nH]1		inactive: -8.04%
Cc1ccccc1Nc1oc(-c2ccccc2)nc1-c1ccccc1	inconclusive [inhibitor, single point]	
Cc1ccc2nc(NC(=O)Cn3nc(C)c([N+](=O)[O-])c3C)sc2c1		inactive: -9%
O=C1c2cccc3cccc(c23)C(=O)N1OS(=O)(=O)c1ccc(Cl)cc1	inconclusive [inhibitor, single point]	
COC(=O)Cc1cc(=O)oc2cc(OC)ccc12	inconclusive [inhibitor, partial curve]	
Cc1noc(C)c1-c1nccc(NCc2cccnc2)n1		inactive: -8.54%
O=C(NCCC1=CCCCC1)C1COc2ccccc2O1 (stereo not given)	inconclusive [inhibitor, single point]	
CCOC(=O)CSc1nc2ccccc2c(=O)n1Cc1ccco1		inactive: -4.86%
N#Cc1nc(-c2ccccc2F)oc1NCc1cccc2c1OCO2	inconclusive [inhibitor, partial curve]	
N#CC(C#N)=C1C=C2C=C(N3CCCCC3)CCC2CC1 (stereo not given)		inactive: -13.3%
Cc1cc(C(F)(F)F)nc(SCC(=O)NC2CC3CCC2C3)n1 (stereo not given)	active: 20 µM	
CN=C(Nc1ccccc1OC)SC1CC(=O)N(c2ccc(C(=O)OC)cc2)C1=O (stereo not given)	inconclusive [inhibitor, partial curve]	
O=C(c1ccco1)n1nc(-c2ccccc2)nc1SCc1ccccc1	active: 17.8 µM	
Cc1nn(C2CCCCC2)c(N)c1-c1ccccc1	active: 11.2 µM	
COc1cc(OC)c2c(-c3cccc(-c4ccc(OC)c(F)c4)c3)cc(=O)oc2c1	inconclusive [inhibitor, single point]	
C=CCn1c2ccccc2c2nnc(SCC(=O)NC(C(=O)OC)C(C)C)nc21 (stereo not given)	active: 20 µM	
COc1ccc(-n2nnnc2SCC(=O)c2cc3ccccc3o2)cc1	inconclusive [inhibitor, single point]	
COc1cc2c(cc1OC)C1=C(C#N)CCC(=O)N1CC2	inconclusive [inhibitor, partial curve]	
O=C(c1sc2ccccc2c1Cl)N1CCN(c2ccc(F)cc2)CC1		inactive: -23.3%
CCc1nnc(NC(=O)c2ccc(NS(=O)(=O)c3ccccc3)cc2)s1	inconclusive [inhibitor, single point]	
